Measurements reported in PubChem BioAssay AID1745853 (National Center for Advancing Translational Sciences (NCATS), 2022).
This is one part of the list. These are further read-outs of the screen, such as a control signal, another cell line or another target. No call is given for them.

Key:
Test in all cases: Primary Screen for Target Class Profiling of Small Molecule Inhibitors of Methyltransferases
[1] = biological target: Glycine N-methyltransferase (Homo sapiens) (UniProt Q14749); conditions: purified enzyme, MTase-Glo SAH luminescence; measured here: GNMT inhibition; at 40 µM; stronger effect = lower value
Summary of the method: (§1)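 Each enzyme was assayed with SAM and its substrate. SAH formation detected by MTase-Glo luminescence; single-point 40 uM screen[…].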

[2] = biological target: Guanidinoacetate N-methyltransferase (Homo sapiens) (UniProt Q14353); conditions: purified enzyme, MTase-Glo SAH luminescence; measured here: GAMT inhibition; at 40 µM; stronger effect = lower value
Summary of the method: as §1

[3] = biological target: Histamine N-methyltransferase (Homo sapiens) (UniProt P50135); conditions: purified enzyme, MTase-Glo SAH luminescence; measured here: HNMT inhibition; at 40 µM; stronger effect = lower value
Summary of the method: as §1

[4] = biological target: Nicotinamide N-methyltransferase (Homo sapiens) (UniProt P40261); conditions: purified enzyme, MTase-Glo SAH luminescence; measured here: NNMT inhibition; at 40 µM; stronger effect = lower value
Summary of the method: as §1

[5] = biological target: Phenylethanolamine N-methyltransferase (Homo sapiens) (UniProt P11086); conditions: purified enzyme, MTase-Glo SAH luminescence; measured here: PNMT inhibition; at 40 µM; stronger effect = lower value
Summary of the method: as §1
On the % scale 0 is the no-effect control and ±100 the full control effect.

CC1=CC2/C=C(\C)CC[C@@H](O)[C@@H](O)[C@@H]3O[C@@H]3C(=O)[C@]23C(=O)N[C@@H](CC(C)C)[C@@H]3[C@@H]1C (stereo not given in full)
activity change, negative = inhibition [1]: -4.93%
activity change, negative = inhibition [2]: 1.19%
activity change, negative = inhibition [3]: 4.93%
activity change, negative = inhibition [4]: -14.5%
activity change, negative = inhibition [5]: -11.8%

COc1cccc(CN2C(=O)CSc3c(c4ccccc4n3C)C2C(=O)NCCCOC(C)C)c1 (stereo not given)
activity change, negative = inhibition [1]: -2.16%
activity change, negative = inhibition [2]: -6.95%
activity change, negative = inhibition [3]: 2.32%
activity change, negative = inhibition [4]: -11.3%
activity change, negative = inhibition [5]: -4.2%

Cn1cc(CN2CCN(c3cnccn3)CC2)c(-c2ccc(C3CCCCC3)cc2)n1
activity change, negative = inhibition [1]: -8.56%
activity change, negative = inhibition [2]: 0.597%
activity change, negative = inhibition [3]: -0.43%
activity change, negative = inhibition [4]: -28.8%
activity change, negative = inhibition [5]: -5.05%

COc1ccc(OC)c(N2C(=O)c3cc4ccc(OC)cc4n3CC2(C)C(=O)NC2CCCCC2)c1 (stereo not given)
activity change, negative = inhibition [1]: -3.28%
activity change, negative = inhibition [2]: 0%
activity change, negative = inhibition [3]: 1.53%
activity change, negative = inhibition [4]: -4.79%
activity change, negative = inhibition [5]: -3.23%

CCOC(=O)c1cc2n(n1)CC(C)(C(=O)NCCC(C)C)N(c1ccc(F)cc1C)C2=O (stereo not given)
activity change, negative = inhibition [1]: -4.25%
activity change, negative = inhibition [2]: 5.19%
activity change, negative = inhibition [3]: -1.74%
activity change, negative = inhibition [4]: 4.39%
activity change, negative = inhibition [5]: -1.76%

COc1ccc(C2COc3cc(O)ccc3C2)c(O)c1OC (stereo not given)
activity change, negative = inhibition [1]: 0%
activity change, negative = inhibition [2]: 4.85%
activity change, negative = inhibition [3]: 3.82%
activity change, negative = inhibition [4]: -11.8%
activity change, negative = inhibition [5]: 4.71%

CCOCCCNc1nc2c(S(=O)(=O)c3ccc(CC)cc3)nnn2c2ccccc12
activity change, negative = inhibition [1]: -7.22%
activity change, negative = inhibition [2]: 4.67%
activity change, negative = inhibition [3]: 0.177%
activity change, negative = inhibition [4]: -4.57%
activity change, negative = inhibition [5]: -7.41%

Cc1ccc(NC(=O)CSc2nnc3n(CCc4ccccc4)c(=O)c4ccccc4n23)c(C)c1
activity change, negative = inhibition [1]: 3.05%
activity change, negative = inhibition [2]: 4.99%
activity change, negative = inhibition [3]: 6.84%
activity change, negative = inhibition [4]: -3.17%
activity change, negative = inhibition [5]: -0.238%

Cc1cccc(-c2nnn3c2nc(N2CCCC2)c2ccccc23)c1
activity change, negative = inhibition [1]: -3.95%
activity change, negative = inhibition [2]: 1.54%
activity change, negative = inhibition [3]: -2.62%
activity change, negative = inhibition [4]: 2.69%
activity change, negative = inhibition [5]: -12.8%

CCC(C)NC(=O)c1ccc2c(=O)n(C)c3nn(Cc4cccc(OC)c4)c(=O)n3c2c1 (stereo not given)
activity change, negative = inhibition [1]: 7.63%
activity change, negative = inhibition [2]: 0.711%
activity change, negative = inhibition [3]: 6.37%
activity change, negative = inhibition [4]: 4.69%
activity change, negative = inhibition [5]: 8.01%

COc1cccc(CN2C(=O)c3nc4ccccc4n3CC2(C)C(=O)NC2CCCC(C)C2C)c1 (stereo not given)
activity change, negative = inhibition [1]: -5.72%
activity change, negative = inhibition [2]: 5.48%
activity change, negative = inhibition [3]: -1.7%
activity change, negative = inhibition [4]: -17.2%
activity change, negative = inhibition [5]: -1.29%

O=C(CCn1ccc2cc(S(=O)(=O)N3CCCCC3)ccc21)NCc1ccccc1
activity change, negative = inhibition [1]: 4.39%
activity change, negative = inhibition [2]: 2.48%
activity change, negative = inhibition [3]: 8.26%
activity change, negative = inhibition [4]: 1.08%
activity change, negative = inhibition [5]: 3.33%

COCCc1noc([C@@H]2CC(F)(F)CN2C(=O)c2ccoc2)n1
activity change, negative = inhibition [1]: -0.348%
activity change, negative = inhibition [2]: 3.82%
activity change, negative = inhibition [3]: 1%
activity change, negative = inhibition [4]: 4.38%
activity change, negative = inhibition [5]: 2.6%

COC(=O)c1ncn2c1C(=O)N(C1CC1)C(C)(C(=O)NCc1ccccc1)C2 (stereo not given)
activity change, negative = inhibition [1]: 1.27%
activity change, negative = inhibition [2]: 0%
activity change, negative = inhibition [3]: 10.9%
activity change, negative = inhibition [4]: 5.73%
activity change, negative = inhibition [5]: 5.23%

CSCCC(NC(=O)c1ccccc1NC(=O)c1ccccc1)C(=O)O (stereo not given)
activity change, negative = inhibition [1]: 0.676%
activity change, negative = inhibition [2]: 6.52%
activity change, negative = inhibition [3]: 2.44%
activity change, negative = inhibition [4]: 11%
activity change, negative = inhibition [5]: -2.56%

Cc1ccc(Cn2c(=O)c3ccccc3n3c(CCC(=O)NCCc4ccc(Cl)cc4)nnc23)cc1
activity change, negative = inhibition [1]: -6.72%
activity change, negative = inhibition [2]: 0%
activity change, negative = inhibition [3]: 0.692%
activity change, negative = inhibition [4]: 0.451%
activity change, negative = inhibition [5]: -7.87%

COc1ccc(-c2ccc3nnc(CNC(=O)CCc4ccccc4)n3n2)cc1
activity change, negative = inhibition [1]: -7.25%
activity change, negative = inhibition [2]: -8.44%
activity change, negative = inhibition [3]: -5.54%
activity change, negative = inhibition [4]: -14.6%
activity change, negative = inhibition [5]: 1.9%

O=S(=O)(c1ccccc1)c1nnn2c1nc(NC1CCN(Cc3ccccc3)CC1)c1ccccc12
activity change, negative = inhibition [1]: 6.54%
activity change, negative = inhibition [2]: 5.55%
activity change, negative = inhibition [3]: -3.23%
activity change, negative = inhibition [4]: 4.96%
activity change, negative = inhibition [5]: 4.53%

COCc1ncc(C)n1C1CCN(C(=O)Cc2cccc(F)c2)CC1
activity change, negative = inhibition [1]: 0.799%
activity change, negative = inhibition [2]: 1.51%
activity change, negative = inhibition [3]: 1.72%
activity change, negative = inhibition [4]: 1.16%
activity change, negative = inhibition [5]: -4.11%

CC1=C[C@@H](CNC(=O)CCCC(=O)O)[C@H](C(C)C)C[C@H]1Cc1nc2ccccc2n1C
activity change, negative = inhibition [1]: -5%
activity change, negative = inhibition [2]: -1.67%
activity change, negative = inhibition [3]: -3.46%
activity change, negative = inhibition [4]: -10%
activity change, negative = inhibition [5]: -3.71%

COc1ccccc1CNC(=O)c1ccc2c(=O)n(-c3cccc(F)c3)c3nnc(C)n3c2c1
activity change, negative = inhibition [1]: 2.78%
activity change, negative = inhibition [2]: 4.22%
activity change, negative = inhibition [3]: -2.16%
activity change, negative = inhibition [4]: 5.83%
activity change, negative = inhibition [5]: 0.681%

Cc1nc(CC(=O)NCc2cccnc2N2CCOCC2)cs1
activity change, negative = inhibition [1]: 0.049%
activity change, negative = inhibition [2]: 1.55%
activity change, negative = inhibition [3]: 2.84%
activity change, negative = inhibition [4]: 2.83%
activity change, negative = inhibition [5]: 2.33%

COCC(=O)N[C@@H]1CN(Cc2ccc(C)s2)CC[C@@H]1c1n[nH]c(C)n1
activity change, negative = inhibition [1]: -4.32%
activity change, negative = inhibition [2]: -3.67%
activity change, negative = inhibition [3]: -0.019%
activity change, negative = inhibition [4]: -6.91%
activity change, negative = inhibition [5]: 8.2%

FC(F)(F)c1ccc(CN2CCCC3(CC(Cc4ccccc4)=NO3)C2)cc1 (stereo not given)
activity change, negative = inhibition [1]: -5.26%
activity change, negative = inhibition [2]: -6.38%
activity change, negative = inhibition [3]: -0.343%
activity change, negative = inhibition [4]: -14.8%
activity change, negative = inhibition [5]: 0.381%

O=C(OC[C@@]1(O)CO[C@@H](O[C@H]2[C@H](Oc3ccc(O)cc3)O[C@H](CO)[C@@H](O)[C@@H]2O)[C@@H]1O)c1ccc(O)cc1
activity change, negative = inhibition [1]: 1.49%
activity change, negative = inhibition [2]: 1.47%
activity change, negative = inhibition [3]: 4.52%
activity change, negative = inhibition [4]: -8.68%
activity change, negative = inhibition [5]: -2.71%

CCOc1ccc(CN2C(=O)c3nc4ccccc4n3CC2(C)C(=O)NC2CCCCCC2)cc1 (stereo not given)
activity change, negative = inhibition [1]: -13.7%
activity change, negative = inhibition [2]: 0.602%
activity change, negative = inhibition [3]: -3.55%
activity change, negative = inhibition [4]: -15.9%
activity change, negative = inhibition [5]: -5.08%

COCCN1C(=O)c2ccc(-c3ccco3)n2CC1(C)C(=O)NC1CCC(C)CC1 (stereo not given)
activity change, negative = inhibition [1]: 3.71%
activity change, negative = inhibition [2]: 0%
activity change, negative = inhibition [3]: 8.91%
activity change, negative = inhibition [4]: 6.7%
activity change, negative = inhibition [5]: 3.56%

OCc1nc(C2CCNC2)no1 (stereo not given)
activity change, negative = inhibition [1]: -3.03%
activity change, negative = inhibition [2]: -0.527%
activity change, negative = inhibition [3]: 0.342%
activity change, negative = inhibition [4]: -1.36%
activity change, negative = inhibition [5]: 16%
